# This is one part of the list.
# What was measured:
# Test in all cases: glycan array binding signal (z-score within array); higher = stronger binding
# Conditions in all cases: glycan notation: IUPAC condensed, linker removed
# [1] = target: Fuc(a1-2)Gal(b1-4)[Fuc(a1-3)]GlcNAc
# Summary of the method: (§1)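 Negative Z-scores can be read as non-binding. The Z-score is calculated within each array and then averaged across arrays of one protein sequence at different concentrations or buffers and across linkers. Arrays, 3228 in all, were curated from the Consortium for Functional Glycomics database and kept only where the protein sequence was available.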
# [2] = target: Fuc(a1-2)Gal(b1-4)[Fuc(a1-3)]GlcNAc(b1-2)Man(a1-3)[Fuc(a1-2)Gal(b1-4)[Fuc(a1-3)]GlcNAc(b1-2)Man(a1-6)]Man(b1-4)GlcNAc(b1-4)[Fuc(a1-6)]GlcNAc
# Summary of the method: as §1
# [3] = target: Fuc(a1-2)Gal(b1-4)[Fuc(a1-3)]GlcNAc(b1-2)[Fuc(a1-2)Gal(b1-4)[Fuc(a1-3)]GlcNAc(b1-4)]Man(a1-3)[Fuc(a1-2)Gal(b1-4)[Fuc(a1-3)]GlcNAc(b1-2)Man(a1-6)]Man(b1-4)GlcNAc(b1-4)GlcNAc
# Summary of the method: as §1
# [4] = target: Fuc(a1-2)Gal(b1-4)[Fuc(a1-3)]GlcNAc(b1-3)Gal(b1-4)[Fuc(a1-3)]GlcNAc
# Summary of the method: as §1
# [5] = target: Fuc(a1-2)Gal(b1-4)[Fuc(a1-3)]GlcNAc(b1-3)Gal(b1-4)[Fuc(a1-3)]GlcNAc(b1-3)Gal(b1-4)[Fuc(a1-3)]GlcNAc
# Summary of the method: as §1
# [6] = target: Fuc(a1-2)Gal(b1-4)[Fuc(a1-3)]GlcNAc(b1-3)GalNAc
# Summary of the method: as §1
# [7] = target: Fuc(a1-2)Gal(b1-4)[Fuc(a1-3)]GlcNAc(b1-3)[Neu5Ac(a2-6)Gal(b1-4)GlcNAc(b1-6)]Gal(b1-4)Glc
# Summary of the method: as §1
# [8] = target: Fuc(a1-2)Gal3S(b1-4)GlcNAc
# Summary of the method: as §1
# [9] = target: Fuc(a1-2)Gal6S(b1-3)GlcNAc
# Summary of the method: as §1
# [10] = target: Fuc(a1-2)Gal6S(b1-3)GlcNAc6S
# Summary of the method: as §1
# Fuc(a1-2)Gal6S(b1-4)Glc = target: Fuc(a1-2)Gal6S(b1-4)Glc
# Summary of the method: as §1
# [11] = target: Fuc(a1-2)Gal6S(b1-4)Glc6S
# Summary of the method: as §1
# Fuc(a1-2)[Gal(a1-3)]Gal = target: Fuc(a1-2)[Gal(a1-3)]Gal
# Summary of the method: as §1
# [12] = target: Fuc(a1-2)[Gal(a1-3)]Gal(b1-3)GalNAc
# Summary of the method: as §1
# [13] = target: Fuc(a1-2)[Gal(a1-3)]Gal(b1-3)GalNAc(b1-3)Gal(a1-4)Gal(b1-4)Glc
# Summary of the method: as §1
# [14] = target: Fuc(a1-2)[Gal(a1-3)]Gal(b1-3)GlcNAc
# Summary of the method: as §1
# [15] = target: Fuc(a1-2)[Gal(a1-3)]Gal(b1-3)GlcNAc(b1-2)Man(a1-3)[Fuc(a1-2)[Gal(a1-3)]Gal(b1-3)GlcNAc(b1-2)Man(a1-6)]Man(b1-4)GlcNAc(b1-4)GlcNAc
# Summary of the method: as §1
# [16] = target: Fuc(a1-2)[Gal(a1-3)]Gal(b1-3)GlcNAc(b1-2)Man(a1-3)[Fuc(a1-2)[Gal(a1-3)]Gal(b1-3)GlcNAc(b1-2)Man(a1-6)]Man(b1-4)GlcNAc(b1-4)[Fuc(a1-6)]GlcNAc
# Summary of the method: as §1
# [17] = target: Fuc(a1-2)[Gal(a1-3)]Gal(b1-3)GlcNAc(b1-3)GalNAc
# Summary of the method: as §1
# [18] = target: Fuc(a1-2)[Gal(a1-3)]Gal(b1-3)GlcNAc(b1-6)GalNAc
# Summary of the method: as §1
# [19] = target: Fuc(a1-2)[Gal(a1-3)]Gal(b1-4)Glc
# Summary of the method: as §1
# [20] = target: Fuc(a1-2)[Gal(a1-3)]Gal(b1-4)GlcNAc
# Summary of the method: as §1
# [21] = target: Fuc(a1-2)[Gal(a1-3)]Gal(b1-4)GlcNAc(b1-2)Man
# Summary of the method: as §1
# [22] = target: Fuc(a1-2)[Gal(a1-3)]Gal(b1-4)GlcNAc(b1-2)Man(a1-3)[Fuc(a1-2)[Gal(a1-3)]Gal(b1-4)GlcNAc(b1-2)Man(a1-6)]Man(b1-4)GlcNAc(b1-4)GlcNAc
# Summary of the method: as §1
# [23] = target: Fuc(a1-2)[Gal(a1-3)]Gal(b1-4)GlcNAc(b1-2)Man(a1-3)[Fuc(a1-2)[Gal(a1-3)]Gal(b1-4)GlcNAc(b1-2)Man(a1-6)]Man(b1-4)GlcNAc(b1-4)[Fuc(a1-6)]GlcNAc
# Summary of the method: as §1
# [24] = target: Fuc(a1-2)[Gal(a1-3)]Gal(b1-4)GlcNAc(b1-3)GalNAc
# Summary of the method: as §1
# [25] = target: Fuc(a1-2)[Gal(a1-3)]Gal(b1-4)GlcNAc(b1-3)[Fuc(a1-2)[Gal(a1-3)]Gal(b1-4)GlcNAc(b1-6)]GalNAc
# Summary of the method: as §1
# [26] = target: Fuc(a1-2)[Gal(a1-3)]Gal(b1-4)GlcNAc(b1-6)GalNAc
# Summary of the method: as §1
# [27] = target: Fuc(a1-2)[Gal(a1-3)]Gal(b1-4)[Fuc(a1-3)]Glc
# Summary of the method: as §1
# [28] = target: Fuc(a1-2)[Gal(a1-3)]Gal(b1-4)[Fuc(a1-3)]GlcNAc
# Summary of the method: as §1
# [29] = target: Fuc(a1-2)[Gal(a1-3)]Gal(b1-4)[Fuc(a1-3)]GlcNAc(b1-3)GalNAc
# Summary of the method: as §1
# [30] = target: Fuc(a1-2)[Gal(a1-4)]Gal(b1-4)GlcNAc
# Summary of the method: as §1
# [31] = target: Fuc(a1-2)[GalNAc(a1-3)]Gal
# Summary of the method: as §1
# [32] = target: Fuc(a1-2)[GalNAc(a1-3)]Gal(b1-3)GalNAc(a1-3)[Fuc(a1-2)]Gal(b1-4)GlcNAc
# Summary of the method: as §1
# [33] = target: Fuc(a1-2)[GalNAc(a1-3)]Gal(b1-3)GalNAc(b1-3)Gal(a1-4)Gal(b1-4)Glc
# Summary of the method: as §1
# [34] = target: Fuc(a1-2)[GalNAc(a1-3)]Gal(b1-3)GlcNAc
# Summary of the method: as §1
# [35] = target: Fuc(a1-2)[GalNAc(a1-3)]Gal(b1-3)GlcNAc(b1-2)Man(a1-3)[Fuc(a1-2)[GalNAc(a1-3)]Gal(b1-3)GlcNAc(b1-2)Man(a1-6)]Man(b1-4)GlcNAc(b1-4)GlcNAc
# Summary of the method: as §1
# [36] = target: Fuc(a1-2)[GalNAc(a1-3)]Gal(b1-3)GlcNAc(b1-2)Man(a1-3)[Fuc(a1-2)[GalNAc(a1-3)]Gal(b1-3)GlcNAc(b1-2)Man(a1-6)]Man(b1-4)GlcNAc(b1-4)[Fuc(a1-6)]GlcNAc
# Summary of the method: as §1
binder,measurement,setting,value
CpGal16 (Clavelina picta) (protein) MAKMITNYVGKRIECIMVATDMMSTVFSLASATGDLPFYINFRQRENSIVMNTRVHGKWQYEKSQSSGGMNFYEPFRLVVEVRPSVFKVTVSTMGEEDGITFNLQYSQITIKPDEIVAMHLGYCNLRSELLVTDL,glycan array binding signal (z-score),[1],-0.389
same,glycan array binding signal (z-score),[2],-0.138
same,glycan array binding signal (z-score),[3],-0.29
same,glycan array binding signal (z-score),[4],-0.335
same,glycan array binding signal (z-score),[5],-0.343
same,glycan array binding signal (z-score),[6],-0.125
same,glycan array binding signal (z-score),[7],-0.358
same,glycan array binding signal (z-score),[8],-0.309
same,glycan array binding signal (z-score),[9],-0.361
same,glycan array binding signal (z-score),[10],-0.123
same,glycan array binding signal (z-score),Fuc(a1-2)Gal6S(b1-4)Glc,-0.262
same,glycan array binding signal (z-score),[11],-0.286
same,glycan array binding signal (z-score),Fuc(a1-2)[Gal(a1-3)]Gal,-0.008
same,glycan array binding signal (z-score),[12],-0.389
same,glycan array binding signal (z-score),[13],-0.457
same,glycan array binding signal (z-score),[14],2.39
same,glycan array binding signal (z-score),[15],1.27
same,glycan array binding signal (z-score),[16],-0.205
same,glycan array binding signal (z-score),[17],0.655
same,glycan array binding signal (z-score),[18],2.33
same,glycan array binding signal (z-score),[19],1.97
same,glycan array binding signal (z-score),[20],-0.113
same,glycan array binding signal (z-score),[21],0.058
same,glycan array binding signal (z-score),[22],1.85
same,glycan array binding signal (z-score),[23],-0.069
same,glycan array binding signal (z-score),[24],-0.096
same,glycan array binding signal (z-score),[25],0.604
same,glycan array binding signal (z-score),[26],-0.347
same,glycan array binding signal (z-score),[27],-0.318
same,glycan array binding signal (z-score),[28],-0.434
same,glycan array binding signal (z-score),[29],-0.193
same,glycan array binding signal (z-score),[30],-0.132
same,glycan array binding signal (z-score),[31],-0.442
same,glycan array binding signal (z-score),[32],-0.137
same,glycan array binding signal (z-score),[33],-0.18
same,glycan array binding signal (z-score),[34],2.33
same,glycan array binding signal (z-score),[35],2.19
same,glycan array binding signal (z-score),[36],-0.04

# Source: the supplement of paper PMC8728848
